From the antibiotic and cytotoxicity screens of Wong et al. (2023) come the findings set out here.

This is one part of the list.

One assay concerns HSkMC. The assay is described as follows: cytotoxicity call (relative viability < 0.9). The conditions noted are these: 10 µM.
A further assay deals with HepG2. In words: cytotoxicity call (relative viability < 0.9). The conditions noted are these: 10 µM.
A further assay concerns S. aureus RN4220. The assay is described as follows: growth inhibition call (relative growth <= 0.2). The conditions noted are these: 50 µM.

As for `C[C@H]1CCCCO[C@@H](CN(C)C(=O)C2CCCCC2)[C@@H](C)CN([C@@H](C)CO)C(=O)c2cc(NS(=O)(=O)c3cccs3)ccc2O1`, the cytotoxicity call in the assay on HSkMC and in the assay with HepG2 was “inactive” each time. Also, the growth inhibition call in the assay with S. aureus RN4220 was “inactive”.

In the case of `O=C(NCCN1CCNCC1)c1ccccn1`, the cytotoxicity call in the assay on HSkMC and with HepG2 was “inactive” each time. Also, the growth inhibition call in the assay with S. aureus RN4220 is “inactive”.

Regarding `COc1ccc(S(=O)(=O)N(C)C[C@@H]2Oc3ccc(NC(=O)C4CC4)cc3CC(=O)N([C@H](C)CO)C[C@@H]2C)cc1`, the cytotoxicity call with HSkMC and in the assay with HepG2 was “inactive” each time. Besides, the growth inhibition call with S. aureus RN4220 was “inactive”.

Consider `CN1C(=O)c2cc(NC(=O)c3cccs3)ccc2OC[C@@H]2O[C@@H](CC(=O)NCC(F)(F)F)CC[C@@H]21`, for which the cytotoxicity call with HSkMC and in the assay with HepG2 was “inactive” throughout. The growth inhibition call in the assay with S. aureus RN4220 was “inactive”.

Regarding `COCC#Cc1ccc2c(c1)O[C@H](CN(C)C(=O)c1ccccc1F)[C@@H](C)CN([C@@H](C)CO)S2(=O)=O`, the cytotoxicity call in the assay on HSkMC and in the assay with HepG2 was “inactive” in each case. The growth inhibition call in the assay on S. aureus RN4220 was “inactive”.

On to `C[C@@H]1CN([C@@H](C)CO)C(=O)c2cc(NC(=O)Nc3ccccc3)ccc2O[C@@H]1CN(C)Cc1ccc(C(=O)Nc2ccccc2N)cc1`, for which the cytotoxicity call in the assay on HSkMC is “inactive”. Moreover, the cytotoxicity call with HepG2 was “active”. Further, the growth inhibition call in the assay on S. aureus RN4220 is “inactive”.

For the molecule `COCCNC(=O)C[C@H]1CC[C@H]2[C@@H](COC[C@@H](O)CN2S(=O)(=O)c2ccccc2F)O1`, the cytotoxicity call with HSkMC and with HepG2 was “inactive” in each case. The growth inhibition call in the assay with S. aureus RN4220 is “inactive”.

In the case of `C[C@@H]1CN([C@H](C)CO)C(=O)Cc2cc(NS(=O)(=O)c3ccc(F)cc3)ccc2O[C@@H]1CN(C)Cc1ccc(Cl)c(Cl)c1`, the cytotoxicity call in the assay with HSkMC and in the assay on HepG2 was “active” each time. Further, the growth inhibition call in the assay on S. aureus RN4220 was “inactive”.

`C[C@@H]1CN([C@H](C)CO)C(=O)c2cc(NC(=O)C3CC3)ccc2O[C@H]1CN(C)Cc1ccc(-c2ccccc2)cc1`: the cytotoxicity call with HSkMC and in the assay on HepG2 was “inactive” each time. The growth inhibition call in the assay on S. aureus RN4220 was “inactive”.

As for `CC(C)(C)S(=O)N1Cc2cc(C(=O)NCc3ccc4c(c3)OCO4)nc(-c3cccc(-c4cccc(F)c4)c3)c2[C@H]1CCO` (some centres not stated), the cytotoxicity call with HSkMC was “inactive”. In addition, the cytotoxicity call in the assay on HepG2 was “active”. In addition, in the assay with S. aureus RN4220, the growth inhibition call was “inactive”.

Consider `Cc1noc(C)c1NC(=O)Nc1ccc2c(c1)C(=O)N([C@H](C)CO)C[C@H](C)[C@@H](CN(C)C(=O)Cc1ccccc1)OCCCC[C@@H](C)O2`, for which the cytotoxicity call in the assay with HSkMC and with HepG2 was “inactive” in each case. Moreover, in the assay with S. aureus RN4220, the growth inhibition call is “inactive”.

For the molecule `C[C@@H]1CN([C@@H](C)CO)C(=O)Cc2cc(NC(=O)C3CC3)ccc2O[C@H]1CN(C)C(=O)Nc1ccccc1`, the cytotoxicity call in the assay on HSkMC and with HepG2 was “inactive” each time. The growth inhibition call in the assay with S. aureus RN4220 is “inactive”.

On to `C[C@H]1CN([C@@H](C)CO)S(=O)(=O)c2ccc(C#Cc3ccncc3)cc2O[C@@H]1CN(C)C(=O)C1CCC1`, for which the cytotoxicity call in the assay on HSkMC and in the assay on HepG2 was “inactive” throughout. For the same molecule, the growth inhibition call in the assay with S. aureus RN4220 is “inactive”.

For the molecule `C/C=C/c1ccc2c(c1)O[C@H](CN(C)S(=O)(=O)c1ccccc1)[C@@H](C)CN([C@H](C)CO)S2(=O)=O`, the cytotoxicity call with HSkMC and with HepG2 was “inactive” in each case. For the same molecule, the growth inhibition call in the assay on S. aureus RN4220 is “inactive”.

For `O=C1CCC(N2C(=O)c3ccccc3C2=O)C(=O)N1` (configuration not stated), the cytotoxicity call with HSkMC and in the assay with HepG2 was “inactive” throughout. Further, the growth inhibition call in the assay with S. aureus RN4220 was “inactive”.

Turning to `O=C(O)[C@H]1[C@H](CO)[C@H]2Cn3c(ccc(-c4cncnc4)c3=O)[C@H]2N1C(=O)C1CCC1`, the cytotoxicity call with HSkMC and in the assay on HepG2 was “inactive” in each case. Also, the growth inhibition call in the assay with S. aureus RN4220 was “inactive”.

`COc1cccc(CNC(=O)C[C@@H]2C=C[C@H](NC(=O)C3CCOCC3)[C@@H](CO)O2)c1`: the cytotoxicity call with HSkMC and with HepG2 was “inactive” each time. Further, the growth inhibition call in the assay on S. aureus RN4220 is “inactive”.

Take `COc1ccc(C#Cc2ccc3c(c2)[C@]2(C(=O)N3)[C@H](C(=O)N3CCc4cc(OC)c(OC)cc4C3)[C@H]3C(=O)O[C@H](c4ccccc4)[C@H](c4ccccc4)N3[C@@H]2c2ccc(OCCO)cc2)cc1`: the cytotoxicity call in the assay with HSkMC and with HepG2 was “inactive” in each case. Also, the growth inhibition call with S. aureus RN4220 is “inactive”.

Take `COc1ccc(NC(=O)Nc2ccc3c(c2)C(=O)N([C@H](C)CO)C[C@H](C)[C@H](CN(C)C(=O)C2CCCCC2)OCCCC[C@@H](C)O3)cc1`: the cytotoxicity call in the assay on HSkMC and in the assay on HepG2 was “inactive” each time. Moreover, the growth inhibition call in the assay on S. aureus RN4220 is “inactive”.

`CN(C)C(=O)c1cccc(-c2cccc(-c3nc(C(=O)NCc4ccccc4)cc4c3[C@@H](CCO)N([S@](=O)C(C)(C)C)C4)c2)c1`: the cytotoxicity call with HSkMC and in the assay on HepG2 was “inactive” throughout. Besides, the growth inhibition call in the assay on S. aureus RN4220 was “inactive”.

For `C[C@H]1CCCCO[C@@H](CN(C)S(=O)(=O)c2cccs2)[C@@H](C)CN([C@@H](C)CO)C(=O)c2cc(NC(=O)Nc3ccc4c(c3)OCO4)ccc2O1`, the cytotoxicity call in the assay on HSkMC (human skeletal muscle cells) and in the assay with HepG2 was “inactive” each time. Also, the growth inhibition call in the assay on S. aureus RN4220 is “inactive”.

Regarding `C[C@@H]1CN([C@H](C)CO)C(=O)c2cc(NC(=O)c3ccccc3)ccc2O[C@@H](C)CCCCO[C@@H]1CN(C)Cc1ccncc1`, the cytotoxicity call in the assay with HSkMC and in the assay with HepG2 was “inactive” each time. For the same molecule, the growth inhibition call in the assay with S. aureus RN4220 is “inactive”.

Turning to `Cc1ccc(S(=O)(=O)Nc2ccc3c(c2)C(=O)N([C@H](C)CO)C[C@@H](C)[C@@H](CN(C)C(=O)Nc2cccc4ccccc24)OCCCC[C@@H](C)O3)cc1`, the cytotoxicity call in the assay with HSkMC and in the assay with HepG2 was “inactive” each time. Moreover, the growth inhibition call in the assay on S. aureus RN4220 is “inactive”.

Turning to `COC(=O)c1c(CC[C@@H](CO)NC(=O)N[C@@H](Cc2ccccc2)Cn2cc(C3(O)CCCCC3)nn2)oc(C(C)=O)c1C(=O)OC`, the cytotoxicity call in the assay with HSkMC and with HepG2 was “inactive” each time. In the assay with S. aureus RN4220, the growth inhibition call is “inactive”.
